Test results as given in PubChem BioAssay AID2147 (National Center for Advancing Translational Sciences (NCATS), 2009).
Out of some 230,000 compounds screened, about 3,600 (1.6%) were called active. Inconclusive means that the source gave no clear call. Such entries were picked first, then a sample of the others. Calls follow the shape of the dose curve; as a rule, active = well fitted inhibition curve with a large enough effect (not every such curve was filed as active); inconclusive = small, poorly fitted or top-dose-only effect, or another doubt; inactive = no such curve, though single readings can be large or run the other way. Where the call is inconclusive, the potency comes from a doubtful curve fit.
Also: nearly all actives have a fitted effect of over 50% in size.
Potency is read from the fitted curve at half-maximal effect; tags tell the direction and shape of the fitted curve.

These compounds were tested against Lysine-specific demethylase 4E (Homo sapiens) (UniProt B2RXH2) (assay: qHTS Assay for Inhibitors of Human Jumonji Domain Containing 2E (JMJD2E)). Settings: JMJD2E catalytic domain, FDH-coupled NADH fluorescence (FDH is formaldehyde dehydrogenase); series mostly up to 57.1 µM.
UniProt B2RXH2, sequence (B2RXH2 whole entry, looked up, the tested form may be a part): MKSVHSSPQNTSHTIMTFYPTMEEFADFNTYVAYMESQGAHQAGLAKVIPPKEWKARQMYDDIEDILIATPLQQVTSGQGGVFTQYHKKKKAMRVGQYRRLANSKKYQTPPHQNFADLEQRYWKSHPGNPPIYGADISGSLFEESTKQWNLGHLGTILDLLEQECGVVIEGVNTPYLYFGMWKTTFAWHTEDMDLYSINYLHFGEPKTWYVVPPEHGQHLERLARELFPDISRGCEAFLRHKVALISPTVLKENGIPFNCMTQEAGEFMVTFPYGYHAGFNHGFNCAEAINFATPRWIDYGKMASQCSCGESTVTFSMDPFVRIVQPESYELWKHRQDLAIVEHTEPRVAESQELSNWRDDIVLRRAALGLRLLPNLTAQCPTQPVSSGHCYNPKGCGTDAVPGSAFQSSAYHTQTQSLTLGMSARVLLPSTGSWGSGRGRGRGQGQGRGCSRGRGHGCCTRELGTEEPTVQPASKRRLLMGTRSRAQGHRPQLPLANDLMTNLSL
CN(Cc1nc(Cc2cccc(F)c2)no1)CC1CCOCC1 was tested, and the Potency was “inactive”.
For O=C(NN1C(=O)CSC1=S)C(=O)NN1C(=O)CSC1=S, the Potency was active: 8.91 µM.
For CCN(CC)S(=O)(=O)c1ccc(N2CCOCC2)c(NC(=O)c2ccc3ccccc3c2)c1, the Potency was inconclusive: 31.6 µM [inhibitor, single point].
For Cc1sc(C(C2C(=O)CC(C)(C)CC2=O)C2C(=O)CC(C)(C)CC2=O)cc1[N+](=O)[O-], the Potency was inconclusive: 20 µM [inhibitor, partial curve].
For CCNc1nc2cccnc2s1, the Potency was “inactive”.
With COC(=O)C1=C(C)NC(C)=C(C(=O)OC)C1C(=O)OCC(=O)Nc1ccc(C(C)=O)cc1 the Potency was inconclusive: 31.6 µM [inhibitor, partial curve].
In the case of COc1ccc(C2=NCC(CSc3nnc(-c4ccc5c(c4)OCO5)o3)S2)cc1 (centres undefined), the Potency is reported as inconclusive: 39.8 µM [inhibitor, single point].
For COc1ccc2c(c1OC)C(=O)OC2Nc1nc(-c2cc3cc(Br)ccc3oc2=O)cs1 (centres undefined), the Potency was inconclusive: 39.8 µM [inhibitor, single point].
With CCOC(=O)CC(=O)CSc1nc2c(cc1C#N)CCCCC2 the Potency was inconclusive: 31.6 µM [inhibitor, partial curve].
COC(=O)Cn1c(=NC(=O)CSCC(=O)NC2CCCCC2)sc2cc(OC)ccc21 was tested, and the Potency was inconclusive: 39.8 µM [inhibitor, single point].
For CN(Cc1cnccn1)Cc1nc(Cc2ccccc2Cl)no1, the Potency was “inactive”.
In the case of COc1cc(C2NC(=O)C(C#N)=C(S)N2c2ccc(C)cc2)ccc1OC(C)C (centres undefined), the Potency is reported as “inactive”.
With O=C(Nc1ccc(N2CCOCC2)cc1)C1CC(=O)N(c2ccc(F)cc2)C1 (centres undefined) the Potency was inconclusive: 31.6 µM [inhibitor, single point].
With CC(C)Sc1nc(-c2cccs2)nc2c1c(=O)n(C)c(=O)n2C the Potency was inconclusive: 5.01 µM [inhibitor, single point].
In the case of C=CCc1c(C)nc(SC)nc1Nc1ccc(C(=O)O)cc1, the Potency is reported as inconclusive: 39.8 µM [inhibitor, single point].
With Cc1cc(C)cc(-n2c3nc4ccccc4nc3c3c(=O)n(Cc4ccco4)cnc32)c1 the Potency was inconclusive: 20 µM [inhibitor, partial curve].
With O=C1Cc2cccc3cccc1c23 the Potency was inconclusive: 31.6 µM [inhibitor, partial curve].
CCOC(=O)C1(Cc2ccc(OC)cc2)CCN(C(=O)CCc2cnccn2)CC1 was tested, and the Potency was “inactive”.
CCc1ccccc1NC(=O)c1nnn(CC(=O)Nc2cccc(C)c2)c1N was tested, and the Potency was inconclusive: 35.5 µM [inhibitor, single point].
With O=[N+]([O-])c1ccc(C(=S)N2CCCC2)cc1 the Potency was “inactive”.
In the case of CCCC(=O)NC(c1ccco1)c1cc([N+](=O)[O-])c2cccnc2c1O (centres undefined), the Potency is reported as active: 28.2 µM.
For COc1ccccc1/C=C\C=N\NC(=O)c1ccco1, the Potency was inconclusive: 25.1 µM [inhibitor, single point].
In the case of Cc1[nH]c2ccccc2c1/C=C/C(=O)c1ccncc1, the Potency is reported as “inactive”.
In the case of Cc1cc(C)c2nc(-c3ccccn3)cc(C(=O)NCCc3ccc(S(N)(=O)=O)cc3)c2c1, the Potency is reported as inconclusive: 31.6 µM [inhibitor, partial curve].
For CCC(=O)c1ccc2c(c1)OCCO2, the Potency was “inactive”.
In the case of Cc1ccc(C)c2[nH]c(=O)c(CN(Cc3ccco3)C(=O)Nc3ccccc3)cc12, the Potency is reported as inconclusive: 39.8 µM [inhibitor, single point].
With CCOc1ccccc1C(=O)Nc1cc(OC)ccc1OC the Potency was inconclusive: 39.8 µM [inhibitor, single point].
With COc1ccc(-c2ccc(-c3nnn(CC(=O)N4CCOCC4)n3)cc2)cc1 the Potency was inconclusive: 20 µM [inhibitor, partial curve].
With COc1ccc(-c2cn3cccnc3n2)cc1NC(=O)c1cccs1 the Potency was inconclusive: 31.6 µM [inhibitor, partial curve].
With CCn1c(C)cc(=S)c2ccccc21 the Potency was inconclusive: 31.6 µM [inhibitor, single point].
With COCCNc1nc2ccccc2nc1NS(=O)(=O)c1ccc(C)cc1C the Potency was inconclusive: 31.6 µM [inhibitor, partial curve].
For COC(=O)Cc1c(C)nc2nc(NCc3ccc(Cl)cc3)[nH]n2c1=O, the Potency was inconclusive: 22.4 µM [inhibitor, partial curve].
For O=c1oc2cc(O)ccc2cc1-c1ccc2c(c1)OCCO2, the Potency was inconclusive: 28.2 µM [inhibitor, partial curve].
With CCNc1cc2n(c(=O)n1)CCc1cc(OC)c(OC)cc1-2 the Potency was inconclusive: 31.6 µM [inhibitor, partial curve].
In the case of CC(=O)Nc1ccc(Nc2ncnc3c2cnn3-c2ccc(C)cc2C)cc1, the Potency is reported as inconclusive: 39.8 µM [inhibitor, single point].
With O=C(c1ccc2c3c(cccc13)CC2)C1CCCN(C(=O)c2cc[n+]([O-])cc2)C1 (centres undefined) the Potency was inconclusive: 28.2 µM [inhibitor, partial curve].
In the case of C=CCOc1c2ccc(C(=O)NCc3ccccc3OC)cc2nn1C, the Potency is reported as inconclusive: 31.6 µM [inhibitor, partial curve].
With Cc1ccc(NC(=S)N2CCN(c3nccc(C(F)(F)F)n3)CC2)c(C)c1 the Potency was inconclusive: 35.5 µM [inhibitor, single point].
CCc1nnc(NC(=O)CSc2nnc(CNc3ccc(F)cc3)n2C2CCCCC2)s1 was tested, and the Potency was inconclusive: 39.8 µM [inhibitor, single point].
In the case of COc1ccccc1CNc1ccnc(-c2ccc3c(c2)OCO3)n1, the Potency is reported as inconclusive: 39.8 µM [inhibitor, single point].
With CN(C)C=Nc1ccc2nn(-c3ccccc3)nc2c1 the Potency was inconclusive: 25.1 µM [inhibitor, partial curve].
In the case of COc1cc2oc3cc(C)oc(=O)c3c2cc1OC, the Potency is reported as inconclusive: 25.1 µM [inhibitor, partial curve].
For CC1Cc2ccccc2N1CC(=O)c1c(N)n(Cc2ccccc2)c(=O)n(C)c1=O (centres undefined), the Potency was “inactive”.
With Oc1ccc2ccccc2c1CN1CCN(c2ccccc2F)CC1 the Potency was inconclusive: 35.5 µM [inhibitor, single point].
